The name of at least one read-out is uncertain.
Tested on: Male Wistar rats
Experiment: Hemodynamics (LV dP/dt, MAP, HR) in anesthetized rats after i.v. bolus doses
Type: in vivo
Details: for HR Maximal Percent change / LV dP/dt Maximal Percent change / MAP Maximal Percent change: mean ± SE

Row | SMILES | LV dP/dt Duration of Action(>5%) (1st dose (0.01 μmol)) [min] | HR Maximal Percent change (1st dose (0.01 μmol)) [%] | LV dP/dt Maximal Percent change (1st dose (0.01 μmol)) [%] | MAP Maximal Percent change (1st dose (0.01 μmol)) [%] | LV dP/dt Duration of Action(>5%) (2nd dose (0.03 μmol)) [min] | HR Maximal Percent change (2nd dose (0.03 μmol)) [%] | LV dP/dt Maximal Percent change (2nd dose (0.03 μmol)) [%] | MAP Maximal Percent change (2nd dose (0.03 μmol)) [%] | HR Duration of Action(>5%) (3rd dose (0.1 µmol)) [min] | LV dP/dt Duration of Action(>5%) (3rd dose (0.1 µmol)) [min] | MAP Duration of Action(>5%) (3rd dose (0.1 µmol)) [min] | HR Maximal Percent change (3rd dose (0.1 µmol)) [%] | LV dP/dt Maximal Percent change (3rd dose (0.1 µmol)) [%] | MAP Maximal Percent change (3rd dose (0.1 µmol)) [%] | HR Duration of Action(>5%) (4th dose (0.3 μmol)) [min] | LV dP/dt Duration of Action(>5%) (4th dose (0.3 μmol)) [min] | MAP Duration of Action(>5%) (4th dose (0.3 μmol)) [min] | HR Maximal Percent change (4th dose (0.3 μmol)) [%] | LV dP/dt Maximal Percent change (4th dose (0.3 μmol)) [%] | MAP Maximal Percent change (4th dose (0.3 μmol)) [%] | further results
1 | O=C1CCC(c2ccc(N=C(c3ccccc3)c3ccc(O)cc3O)cc2)=NN1 [Compound C] | 1 | 2 ± 0.3 | 5 ± 1 | 2 ± 0.5 | 5 | 3 ± 1 | 8 ± 2 | 1 ± 1 | 1 | 15 | 1 | 5 ± 1 | 12 ± 4 | -7 ± 2 | >30 | >30 | >30 | 8 ± 1 | 17 ± 7 | -12 ± 3 | 
2 | COc1ccc(CCC(=Nc2ccc(C3=NNC(=O)CC3)cc2)c2ccc(O)cc2O)cc1OC [Compound R] |  | -2 ± 1 | 4 ± 1 | -6 ± 2 | 3 | 2 ± 0.2 | 7 ± 1 | -5 ± 1 |  | 5 |  | 3 ± 1 | 9 ± 1 | -7 ± 1 |  | 7 | >30 | 4 ± 1 | 14 ± 9 | -20 ± 2 | 
3 | O=C1CCC(c2ccc(N=C(CCc3ccccc3)c3ccc(O)cc3O)cc2)=NN1 [Compound L, 6-[4-(1-(2,4-dihydroxyphenyl)-3-phenylpropylidene)aminophenyl]-4,5-dihydropyridazin-3(2H)one] |  | -3 ± 1 | 3 ± 1 | -5 ± 2 |  | 3 ± 0.4 | 11 ± 2 | -7 ± 2 | 1 | 8 | 1 | 6 ± 2 | 27 ± 3 | -10 ± 3 | 1 | 14 | 1 | 7 ± 1 | 32 ± 5 | -21 ± 3 | 
4 | CC(=Nc1ccc(C2=NNC(=O)CC2C)cc1)c1ccc(O)cc1O (stereo not shown) [Compound D, 6-[4-(1-(2,4-Dihydroxyphenyl)ethylidene)aminophenyl]-4,5-dihydro-5-methylpyridazin-3(2H)one] | 1 | 3 ± 1 | 7 ± 2 | -7 ± 1 | >30 | 5 ± 1 | 13 ± 3 | -13 ± 1 | >30 | >30 | >30 | 10 ± 1 | 18 ± 5 | -21 ± 2 | >120 | >120 | >120 | 11 ± 1 | 29 ± 10 | -34 ± 3 | MAP Duration of Action(>5%) (1st dose (0.01 μmol)): 1 min; HR Duration of Action(>5%) (2nd dose (0.03 μmol)): 1 min; MAP Duration of Action(>5%) (2nd dose (0.03 μmol)): >30 min
5 | O=C1CCC(c2ccc(N=Cc3ccccc3O)cc2)=NN1 [Compound G, 6-[4-(2-hydroxyphenyl)methyleneaminophenyl]-4,5-dihydropyridazin-3(2H)one] |  | 2 ± 1 | 3 ± 1 | -7 ± 1 |  | 3 ± 1 | 6 ± 1 | -6 ± 1 |  | 4 | 2 | 3 ± 0.4 | 9 ± 1 | -11 ± 2 | 2 | 10 | 2 | 5 ± 1 | 14 ± 2 | -15 ± 4 | 
6 | O=C1CCC(c2ccc(N=C(Cc3ccc(Cl)c(Cl)c3)c3ccc(O)cc3O)cc2)=NN1 [Compound S] |  | -1 ± 0.4 | 4 ± 2 | -9 ± 1 | 2 | 3 ± 0.5 | 8 ± 2 | -6 ± 2 |  | 7 |  | 3 ± 1 | 10 ± 2 | -6 ± 1 |  | 13 | >30 | 4 ± 1 | 14 ± 4 | -19 ± 5 | 
7 | CC(=Nc1ccc(C2=NNC(=O)CC2)cc1)c1ccc(O)cc1O [Compound B, 6-[4-(1-(2,4-Dihydroxyphenyl)ethylidene)aminophenyl]-4,5-dihydropyridazin-3(2H)one] | 3 | -1 ± 0.3 | 11 ± 4 | 1 ± 1 | >30 | 1 ± 1 | 16 ± 6 | 2 ± 1 |  | >30 | 1 | 3 ± 0.3 | 17 ± 8 | -6 ± 1 | 1 | >30 | 2 | 5 ± 1 | 28 ± 11 | -14 ± 3 | 
8 | O=C1CCC(c2ccc(N=C(CC(c3ccccc3)c3ccccc3)c3ccc(O)cc3O)cc2)=NN1 [Compound U] |  | -0.2 ± 0.5 | 2 ± 2 | -6 ± 2 |  | 1 ± 1 | 6 ± 1 | -4 ± 7 |  |  |  | 2 ± 1 | 7 ± 4 | -2 ± 2 |  | 8 |  | 2 ± 2 | 14 ± 4 | 0.4 ± 4 | 
9 | CC1CC(=O)NN=C1c1ccc(N=Cc2ccccc2O)cc1 (stereo not shown) [Compound N, 6-[4-(2-hydroxyphenyl)methyleneaminophenyl]-5-methyl-4,5-dihydropyridazin-3(2H)one] | 7 | -2 ± 0.3 | 10 ± 1 | -6 ± 1 | >30 | 6 ± 1 | 23 ± 5 | -10 ± 1 | >30 | >30 | >30 | 10 ± 1 | 41 ± 10 | -12 ± 2 | >30 | >30 | >30 | 12 ± 1 | 42 ± 12 | -24 ± 2 | HR Duration of Action(>5%) (2nd dose (0.03 μmol)): 6 min; MAP Duration of Action(>5%) (2nd dose (0.03 μmol)): 12 min
10 | CCC(=Nc1ccc(C2=NNC(=O)CC2)cc1)c1ccc(O)cc1O [Compound E, 6-[4-(1-(2,4-Dihydroxyphenyl)propylidene)aminophenyl]-4,5-dihydropyridazin-3(2H)one] |  | 1 ± 0.4 | 4 ± 1 | -2 ± 1 | 1 | 2 ± 0.2 | 8 ± 2 | -2 ± 0.2 |  | >30 | 1 | 2 ± 0.2 | 12 ± 3 | -9 ± 3 |  | >30 | 2 | 3 ± 0.3 | 19 ± 4 | -13 ± 3 | 
11 | Cl.O=C1CCC(c2ccc(Nc3ccncc3)cc2)=NN1 [MCI-154, 4,5-Dihydro-6-(4-(4-pyridinylamino)phenyl)-3(2H)-pyridazinone monohydrochloride, reference compound] | 5 | 2 ± 1 | 13 ± 5 | -3 ± 2 | 8 | 4 ± 1 | 20 ± 4 | -9 ± 3 | 8 | 22 | >30 | 6 ± 1 | 23 ± 4 | -25 ± 4 | 11 | >30 | >30 | 7 ± 2 | 31 ± 13 | -31 ± 3 | MAP Duration of Action(>5%) (2nd dose (0.03 μmol)): 1 min

Source: patent EP0359439A1, “Substituted pyridazinones” (ORION-YHTYMÄ OY, priority 1988, dated 1990)
